Reference: the RNAGym collection of RNA variant scans (doi:10.1073/pnas.2313332121)
Variants at the floor of the assay are shown more often than the library holds them.

B1: TPR 5TU (parent)
chain: GGAUCUUCUCGAUCUAACAAAAAAGACAAAUCUGCCACAAAGCUUGAGAGCAUCUUCGGAUGCAGAGGCGGCAGCCUUCGGUGGCGCGAUAGCGCCAACGUUCUCAACUAUGACACGCAAAACGCGUGCUCCGUUGAAUGGAGUUUAUCAUG

Variants of: B1
Experiment: polymerase ribozyme fitness, log enrichment relative to wild type (log ratio); higher = more active; in vitro selection for triplet polymerase activity
Method in brief: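 Input and output libraries were sequenced on Illumina after a single in vitro selection round, run in triplicate on PCR-built, transcribed mutant libraries of each subunit of a heterodimeric triplet polymerase ribozyme. Selection annealed libraries to a biotinylated primer, the partner subunit and triplets, incubated them frozen at −7 °C, then gel-excised extended constructs for streptavidin-bead capture and RT-PCR. Genotypes with ≥10 input reads and ≥1 read per output were kept. Fitness is the logarithm, taken in base 2, of genotype enrichment divided by wild-type enrichment, using inverse-variance-weighted replicate averages.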

Polymerase ribozyme fitness (log ratio), -2.55:
C69A C85A G124U

Polymerase ribozyme fitness (log ratio), ≤ -4.2:
A73G C87U A120U C123U A147G
G70A U135C U144G
A73G U77A G94A A107G A150C
G70A C79G G81U C95A U139A
A73U G84A A150C
G71C C87U U104C C149U
C72U G140A U148C
G68U C132U
G68C C125G
G71C C87A G128U C131U G152U
G71A C72U G84C G124C
G70C C85U A89C
C72U U82A G86U C108G U135A U148C
C69G C79U A91G C99U A107G
C72A C93U
A73U G84U A120G G140A U144G
C69U G84A A115G G117U G136C
A73U C75A U77C G83C C103A A150C
G74A A89U C93G
G71A A89G G136C
G68C G94C U111A G133A
G68C A91U U102G
A73C A91C C93G G94C A98G C116A
C72G A89U U90C G92C C118U
C69A C76G C79A U102A G141C
G68C G83U C103U A106G
G74A U77C C85G A115U G140A
C69A C85U U101G
A73C G80C A137G G140C U145A
C69A C93U C103A U139A A142G
A73U G83U A122C U127A
A73G G94A C105G A121C G143U A147G
A73G U78A C116A A138G
A73G C85U A138G
A73G C93A A97G G100U A106U A107G
G71U C95U U104G A107G C118U
G74A U82A G83C
G74A A91U
G68C G80A G81A C85G G86U G100A
G74A G83C G86A
A73G A91U A97G U101G C118A G141A
G68C A73G C85G C118G U134A
A73G C85A A98U A107G
C69G C72U C79A C85U A107G A137U U144A
C72U G81U G92C U111C
G68U G84A C116G G124A C129A G143U
G68C A122U
A73G G74A U127G A138U U146G
A73G G92A C132U G141C
G71A G80C
C72G G83C
A73C C93A
G71C U82A C85G U146G A150C
A73G G80U G94U U102C U127C
C69A C85U C99G C125U
C69A G71U C87A A97C
C72A G94U C96U G133A
C72A G88A
G74A C85A U90C G141A U148C
C72A C96A G117C
G74A G140U A142U A147U
C69A G88C
A73G C85A C99U U145G C149U
G71C G84U A91C A106G U144A
G70A C75U C87G C99G C103A G140U U144G U146G
G71U A91U C125G
A73C C93G U104A C125U
G68A G92C C99A
C69A A73G A147C U148A A150U U151A
G71C U102G G133C G141C
C69U C75G G152A

Polymerase ribozyme fitness (log ratio), -2.37:
C69A C85U C123A

Polymerase ribozyme fitness (log ratio), -1.15:
C69G G94A

Polymerase ribozyme fitness (log ratio), -1.7:
C69A A120C

Polymerase ribozyme fitness (log ratio), -2.11:
A73G C76U A142U

Polymerase ribozyme fitness (log ratio), -0.424:
A73U

Polymerase ribozyme fitness (log ratio), -2.82:
C69G G84U A89U A122C U146C

Polymerase ribozyme fitness (log ratio), -2.05:
C69G G84A U101C

Polymerase ribozyme fitness (log ratio), -2.13:
A73C

Polymerase ribozyme fitness (log ratio), -1.02:
A73G A98G U146G

Polymerase ribozyme fitness (log ratio), -2.33:
C69U C93U

Polymerase ribozyme fitness (log ratio), -3.85:
G74A C114U
